Five compounds from US12414955B2 (priority 2020, dated 2025) can be followed below.

In this assay the test system is SARS CoV-2. Put plainly: SARS CoV-2 cytopathic effect (CPE) assay in Vero E6 host cells. To be noted: Vero C1008, 72 hours, 10-point dose response, high concentration 15 μM, read-out: IC50 for inhibition of SARS CoV-2 mediated cell killing. It counts as cell-based, USA_WA1/2020 SARS CoV-2.
Take `C[C@@H]1COCCN1c1cc(N2CCCC[C@@H]2C(F)(F)F)[nH]c(=O)c1` [Compound 1]: the IC50 (in general, the point on the concentration scale where inhibition reaches its midpoint) worked out at 350 nM.

Turning to `C[C@@H]1COCCN1c1cc(N2CCCC[C@@H]2c2ccccc2)[nH]c(=O)c1` [Compound 2], the IC50 amounted to 4370 nM.

In the case of `C[C@@H]1COCCN1c1cc(N2CCC[C@@H]2C(F)(F)F)[nH]c(=O)c1` [Compound 3], the IC50 turned out to be 2010 nM.

With `C[C@@H]1COCCN1c1cc(N2CCOC[C@H]2C(F)(F)F)[nH]c(=O)c1` [Compound 4], the IC50 came out at 1400 nM.

In the case of `C[C@@H]1COCCN1c1cc(N2CCOCC23CCC3)[nH]c(=O)c1` [Compound 5], the IC50 is above 10000 nM.
